In paper PMC12136788:
The other results are listed elsewhere or left out.

T1: UNK ZnF1-3 (human, UniProt Q9C0B0 31-174)
T1 sequence: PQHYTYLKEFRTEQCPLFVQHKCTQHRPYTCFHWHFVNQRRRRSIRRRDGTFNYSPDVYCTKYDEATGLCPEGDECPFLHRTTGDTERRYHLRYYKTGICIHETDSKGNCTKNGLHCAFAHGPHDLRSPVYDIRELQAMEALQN

B1: chr7:75932113:75932114:+_ENSG00000106211_ENST00000248553|hu_hu|hu_hu_hu_mus_False|1_48 (ssRNA)
RNA: GGGAGUUCUACAGUCCGACGAUCCUGCGACCACUCAUCGGGCAACCGGGGCACCCCGAAAGCUUGAUCGAAGAGGCGGCUGUGUGCGUACCAGUCGUCCCGGAAUGGUUCCCAGCUCGGGCUCCGCAGCAGCGAGAGGACGCGCAACAGAGGAUUGAGCAUCA
B2: chr8:98289279:98289280:-_ENSG00000180543_ENST00000322128|hu_hu|motif|central (ssRNA)
RNA: GGGAGUUCUACAGUCCGACGAUCUUCCAAGCUGUUUAAGUAGCUCAGUACCUCUUUCUCUUGGCUAUUCAGAAAGGAUGCGGGCUGGGGAUGGUUCUGAAAUGCUUGCCCCCAGAAGCCCGGGAUAUUUUGGAUGAGGUGGUUCAACAGAGGAUUGAGCAUCA
B3: chr2:201943701:201943702:+_ENSG00000119013_ENST00000433898|hu_hu|FALSE|FALSE (ssRNA)
RNA: GGGAGUUCUACAGUCCGACGAUCAUUGCGGCCCCAUGGAUCCCUUAGCCCUUUUGCAGCCAGCUUCUUCUGGAUAGUUUCUAAUGGUGUCCCUUCUAUCUUCCAUUGUCUAUAAUCUGGAAGUUCCAUUUUAUGAUGUCCAUGCAACAGAGGAUUGAGCAUCA
B4: 127318676_127318796_1818_CDS_ENSMUSG00000036913_ENSMUST00000167588|mouse|control|control (ssRNA)
RNA: GGGAGUUCUACAGUCCGACGAUCCUUCCACGUUGCCCCCAGCGGCUUCACCUCGUGCUUGCUGUGCCUGCCUUCCUCCAGGCACAUGUAGCACACAGGGCUCCGACAGCUCACGCAGUACAUGCUGUAGUUCUCCAUCUCGUGCAACAGAGGAUUGAGCAUCA
B5: chr6:114281168:114281169:-_ENSG00000196591_ENST00000368632|hu_hu|hu_hu_hu_mus_True|8_18 (ssRNA)
RNA: GGGAGUUCUACAGUCCGACGAUCUUCCAUUUUUCGGUAUAAACCAUAAUUUAGCAGCAAGUUAUGAGUCAUCCGGAUUCUAUGAGGCUUCAUGGGAUGACCCUGGCCAUAAUAAUAAUUUCCAAUAUCACAGAUUCAGUAGUACAACAGAGGAUUGAGCAUCA
B6: chr11:72025555:72025556:-_ENSMUSG00000020801_ENSMUST00000021157|mus_hu|FALSE|FALSE (ssRNA)
RNA: GGGAGUUCUACAGUCCGACGAUCUCGCACACUGAGCAUUCACCAGCUCCUUUCGGAAGUGUUCAUAUUGGAGCAGCUCUAACAUGUGUAAACACUGAGGGUACUUUAGAUACUUGGCAUAUUCUGGGUCUUUCCAGUAAAGCACAACAGAGGAUUGAGCAUCA
B7: chr15:59387643:59387644:+_ENSG00000157450_ENST00000557998|hu_hu|motif|central (ssRNA)
RNA: GGGAGUUCUACAGUCCGACGAUCAAGGAUGGUAUUUAACUCAGAACUCCAUAUAGUAAAUAUACAGCAGCCAUUUUGUCCGGAUUAAGGAAUGUCUUAAUACACAAUAUUAUCAUUUUCUAGAGGAUCUUUAUACAUUAAACUCAACAGAGGAUUGAGCAUCA
B8: chr9:14812383:14812384:-_ENSMUSG00000031934_ENSMUST00000164273|mus_mus|mus_mus_mus_hu_True|38_88 (ssRNA)
RNA: GGGAGUUCUACAGUCCGACGAUCAUAGCCCAGGUAGAUACACGCUAACAGUAUAACGAUGAGUGUCAGCAGGCGGCAGCUAAUGUACUUGAUGAUUAAAUGACUAGAAUUUUUCUUUGUCUUCAAGUACUGCUCCACAAUUGGCAACAGAGGAUUGAGCAUCA
B9: chrX:98417731:98417732:-_ENSMUSG00000046032_ENSMUST00000120389|mus_mus|motif|central (ssRNA)
RNA: GGGAGUUCUACAGUCCGACGAUCGUUACUGGGCGGCCCGUAAGCGUCGGUCAGGUCUUGGGGCUUCGAGUUAAGGCGCCGGGUGUCAGCCACUGCGGUGUCCGACAUCUUUCCGAAGAAGAGCCCGGUACCGGCGAAGGGGGUCAACAGAGGAUUGAGCAUCA
B10: chr14:78183846:78183847:+_ENSG00000119705_ENST00000557342|hu_hu|hu_hu_hu_mus_False|28_38 (ssRNA)
RNA: GGGAGUUCUACAGUCCGACGAUCUCUCAGAAAUCUUUCUUCAUCAGAUGUUUGAGCUCCGUGCAAAGCCUUUGCUCUUUGAGCUUGAACGUGGAUCUUUACUCCAUCUAUAAUAUGCAGAAAAGGUAAUUUUUUUUUUAAAGACAACAGAGGAUUGAGCAUCA
B11: chr5:145557987:145557988:+_ENSMUSG00000045482_ENSMUST00000132925|mus_mus|FALSE|FALSE (ssRNA)
RNA: GGGAGUUCUACAGUCCGACGAUCCGGUCUCAAUGGCCUUUUCCAUCGGAAGCUGGAGAGAAGCUUUGCAAUCAGAGAACUCCACGGUAAUGCUGGGGCCUUGAACUUCAGUCACAACAUAGUGCAGCUUCUGGGACUCCUUCACAACAGAGGAUUGAGCAUCA
B12: chr1:29344887:29344888:+_ENSG00000159023_ENST00000356093|perfect_dup|motif|central (ssRNA)
RNA: GGGAGUUCUACAGUCCGACGAUCUUCCAUGACCUUCUCUUCAAGUUCCUUGGUCUGAUUCGGGGCCAGUUUAAAAUCACGGACAUAAUCCACGCCAUGGAGUUCUGGGUCGUAGUCUCCCAGUUCAGACUGGAUGGUGUAAGACAACAGAGGAUUGAGCAUCA
B13: chr10:21962475:21962476:+_ENSG00000078403_ENST00000307729|hu_hu|motif|central (ssRNA)
RNA: GGGAGUUCUACAGUCCGACGAUCUUCAAAGCUUUUAGGCUGUGAAGUAACAGCUGAGGUUGAAGGGAGGCCAAUUAAGGUACGGAAACUAUUUACCCCCCCUUCCUGGCUUCCAGACUCUCCUUUAUGUACAUCUUUGGUUGCCAACAGAGGAUUGAGCAUCA
B14: chr8:42711381:42711382:-_ENSG00000120925_ENST00000527424|hu_hu|FALSE|FALSE (ssRNA)
RNA: GGGAGUUCUACAGUCCGACGAUCCACUUCUCGAUACAUAAUAGAGAUGUAGAUAAGCAAUAAAAAGAUGACAAAGAAAUCAUCUAGAAAGCCUAGAAUUCCAAACAAGGCUUCAGGUACAAAAUCUAGAGGUGAUAUAAGAUACAACAGAGGAUUGAGCAUCA

What follows are binders tested against T1, UNK ZnF1-3 (assay: nsRBNS (natural sequence RNA bind-n-seq); RBNS binding buffer (assumed for nsRBNS): 25 mM Tris pH 7.5, 150 mM KCl, 3 mM MgCl2, 0.01% Triton X-100, 500 ug/ml BSA, 20 U/ml SUPERase-In, 4 C; UNK is unkempt and MSI1 is Musashi-1; names of the RNAs are library labels; protein concentration not given here; high values mean tight binding).
Binder B1 has a binding signal of 0.605 enrichment R.
Work on B2 yielded a binding signal of 1.05 enrichment R.
Work on B3 yielded a binding signal of 0.597 enrichment R.
B4 gave a binding signal of 0.492 enrichment R.
B5 was tested, and the binding signal was 1.28 enrichment R.
B6 showed a binding signal of 0.816 enrichment R.
B7 gave a binding signal of 0.865 enrichment R.
B8 was tested, and the binding signal was 1.01 enrichment R.
B9 was tested, and the binding signal was 1.1 enrichment R.
B10 showed a binding signal of 0.812 enrichment R.
For B11, the binding signal was 1.19 enrichment R.
With B12 the binding signal was 0.636 enrichment R.
B13 showed a binding signal of 0.578 enrichment R.
Work on B14 yielded a binding signal of 1.56 enrichment R.
